ChEMBL document CHEMBL4888484, “Replenishing the malaria drug discovery pipeline: Screening and hit evaluation of the MMV Hit Generation Library 1 (HGL1) against asexual blood stage Plasmodium falciparum ,using a nano luciferase reporter read-out” (2022)
The campaign covered roughly 150,000 compounds. About 540 (0.36%) showed an effect of 50% or more. This is one part of the list.

These molecules were tested on Plasmodium falciparum (assay: Primary screen in NF54 nanoGlo assay, in single point, at 2uM, 72h; a lower Z score goes with more inhibition). Details: timepoint 72 hour.
Assay type: functional, Erythrocyte

| Structure (SMILES) | % Inhibition | Z score |
| --- | --- | --- |
| O=C1NCCOCCN(C(=O)c2ccc3ccccc3n2)[C@H]2CCC[C@@H]12 | -7% | 0.98 |
| Cc1c(Cl)c(C(=O)NC[C@H](c2cccnc2)C(C)C)nn1C | -7% | 0.97 |
| C#CC(C)NC(=O)C1(C(F)(F)F)CCN(C(=O)OC(C)(C)C)C1 (stereo not given) | -15% | 2.4 |
| N#Cc1ccc(COc2cccc(-n3cncn3)c2)cc1 | 2% | -0.41 |
| CN(CC1CCOCC1)C(=O)C1CCC1 | -3% | 0.54 |
| CCCCNC(=O)N(C)CCc1c[nH]cn1 | 0% | 0.06 |
| Cc1csc(CN(C)C(=O)c2c(C)n[nH]c2C2CC2)n1 | -3% | 0.61 |
| c1cc2c(cc1-c1nnc3n1CCCC[C@H]3C1CCOCC1)OCCO2 | 2% | -0.25 |
| CN(C)c1cc(Cl)c2nonc2c1N | -2% | 0.21 |
| Cc1c(C(=O)N2CCCCCCC2)cnn1CCC#N | -7% | 1.37 |
| O=C(NCc1cc(O)ncn1)c1ccc2c(c1)n(CC1CC1)c(=O)n2C1CCCCC1 | -2% | 0.42 |
| Cc1cnc(C(=O)N2CC3OCCN(Cc4ccccc4)C3C2)cn1 (stereo not given) | -11% | 0.91 |
| CCc1nc(C)c(C(=O)N2C[C@H]3C[C@H](c4ccccc4)CC[C@@]3(C(=O)O)C2)o1 | 0% | -0.02 |
| CCOC1CC(NC(=O)N2Cc3cnn(C)c3CC(C)(C)C2)C1n1cccn1 (stereo not given) | 0% | 0.07 |
| CCn1nc(C)c(NS(=O)(=O)c2cccc3ccn(C)c23)c1C | 6% | -0.7 |
| CC(=O)Nc1nc(C(=O)NCC2CCCCC2)cs1 | -13% | 2.01 |
| Cc1c[nH]c(CN(Cc2cocn2)Cc2cocn2)c(C)c1=O | -15% | 1.73 |
| COc1ccc(-c2ncnc3[nH]cnc23)c(OC)c1OC | 9% | -1.15 |
| C[C@H]1CCCCN1S(=O)(=O)c1cccc(C(=O)Nc2ccsc2)c1 | -10% | 0.99 |
| CC(C)N1C[C@H](NC2CCCCCCC2)C[C@H]1C(=O)NCCc1ccccc1F | 2% | -0.3 |
| O=C1CC2(CCN(c3ccncc3F)CC2)CN1Cc1ccc(F)c(F)c1 | -6% | 0.71 |
| CO[C@H]1CCCN(C(=O)NCCc2cc(C)no2)CC1 | 5% | -0.88 |
| O=C(c1cnc(C2CC2)nc1)N(Cc1ccccc1)Cc1ccccc1 | -9% | 1.11 |
| Cc1ccc(-c2noc(-c3sccc3S(=O)(=O)N(C)c3ccc(C)c(C)c3)n2)cc1 | -13% | 1.68 |
| O=C(O)CNC(=O)CN1CCN(Cc2ccccc2)C2(CCCCC2)C1 | -8% | 0.94 |
| O=C1N[C@@](CCc2ccccc2)(C2CCNCC2)C(=O)N1Cc1cncs1 | -4% | 0.8 |
| Cc1ccccc1[C@@H](CC(=O)N1CCC(O)(Cn2ccnc2)CC1)c1ccccc1 | -4% | 0.68 |
| CCOCCN[C@@H](C)c1cc2n(n1)CCC2 | -1% | 0.19 |

| Structure (SMILES) | % Inhibition | Z score |
| --- | --- | --- |
| CCCOc1cc(S(=O)(=O)N(C)C)ccc1Br | 0% | 0.06 |
| Cn1cccc1C(=O)C(=O)N1CCN(c2cccc(C(F)(F)F)c2)CC1 | -4% | 0.37 |
| O=C(Cc1ccccc1)NCc1cnoc1-c1ccc(F)cc1 | 10% | -1.52 |
| Cc1scc(C(=O)N(C)C2CCOC(c3ccc(F)cc3)C2)c1C (stereo not given) | 1% | -0.23 |
| NC[C@H]1CN(Cc2cc(=O)c3cccc(Cl)c3[nH]2)CCO1 | 1% | -0.15 |
| Cc1csc(NC(=O)[C@@H]2CCC[C@@H](N(C)C)CN(C)C(=O)C2)n1 | -7% | 1.13 |
| CN(CCCN1CCOCC1)c1cc(C#N)ccn1 | 0% | 0.03 |
| CC(C)[C@H](C)NC(=O)c1cccnc1O | -4% | 0.54 |
| COc1cccc2c(C(=O)N3CC[C@H](O)C[C@@H]3C)n[nH]c12 | 8% | -1.58 |
| COc1ccccc1-c1ccnc(-n2ncc(C(=O)N3CC[C@H](N(C)C)C3)c2C)n1 | 3% | -0.34 |
| COc1cccc(CC2=NO[C@H](C(=O)N3CCN(c4ccccc4Cl)CC3)C2)c1 | 16% | -1.98 |
| O=S(=O)(NC[C@H]1COCO1)c1cc(F)cc(Cl)c1 | -7% | 0.77 |
| N#Cc1c(NC(=O)CCN2CCN(S(=O)(=O)c3ccccc3F)CC2)sc2c1CCCCC2 | -1% | 0.14 |
| COc1ccc(C(=O)N(Cc2cc3ccc(C)cc3nc2N2CCN(C(C)=O)CC2)C2CC2)c(OC)c1 | -10% | 2.06 |
| COCCN1C[C@@H](Cc2cc(N)ncn2)CC1=O | -6% | 0.73 |
| C[C@@H](C(=O)NCC(C)(C)N1CCOCC1)n1cncn1 | 4% | -0.77 |
| O=C(NCc1nccnc1-c1ccncc1)c1cncc(F)c1 | 20% | -2.51 |
| COc1ccc(N[C@@H](C)c2nc(C3CC3)no2)cn1 | -1% | 0.13 |
| N#Cc1nc2c(S(=O)(=O)c3ccccc3)c(N)n(Cc3ccc(Cl)cc3)c2nc1C#N | -16% | 2.57 |
| COc1ccc(CNC(=O)c2coc(COc3ccc4ncccc4c3)n2)cc1 | 5% | -0.71 |
| Cc1cc(S(=O)(=O)N[C@H]2CCNC2=O)c(C)s1 | 3% | -0.28 |
| COc1ccc(-c2noc(C[C@H]3CCCCN3C(C)=O)n2)cc1OC | -9% | 1.22 |
| O=C(c1nnn2c1CO[C@H](c1ccccc1)C2)N1CCc2ccccc2C1 | -15% | 1.75 |
| NS(=O)(=O)c1ccc(CNC(=O)[C@H]2CCCN(Cc3ccco3)C2)cc1 | 3% | -0.33 |
| CN(Cc1nnsc1Cl)[C@H]1CCN(c2ccccc2)C1=O | -11% | 1.45 |
| O=C(Nc1ncccc1O)C1CN(c2cc(-n3cncn3)ncn2)C1 | 2% | -0.22 |
| CCCn1ncc(C(=O)NCc2nc(C3CCCCC3)no2)c1C | -14% | 2.18 |
